The values below come from the RNAGym collection of RNA variant scans (doi:10.7554/elife.90254).

B1: OR4K15 (parent)
chain: GUUAACGGUCAUAGGCCAUGGAAACUAGGAGCACCAUUUCGCUGCCAGUGAAGAAAUGAACAAAGAAAAUCUGGGCCAGGCAGGCAUCAAAAGAAAUAGUCUUGCGCUCAACCAGAAAGUCUGUAAUCAUUUUAAGGGUA

Read counts are not given, so values of variants with three or more changes are uncertain.

In the data set the parent is B1. The experiment in a line: self-cleavage, relative activity (ratio to wild type); higher = more cleavage; in vitro, sequencing; the parent is a self-cleaving ribozyme.
As for GUUAACGGUCAUAGGCCAUGGAAACUAGGAGCACCAUUUCGCUGCCCGUGGAGAAAUGAACAAAGAAAAUCUGGGCCAGGCAGGCAUUAAAAGAAAUAGUCUUGCGCUCAACCAGAAAGUCUGUAAUCAUUUUAAGGGUA [A47C A51G C88U], the self-cleavage stood at 1.63.
In the case of GUUAACGGUCAUAGGCCAUGGAAACUAGGAGCACCAUUUCGCUGCCCGUGAAGAAAUGAACAAAGAAAAUCUGGGCCGGGCAGGCAUCAAAGGAAAUAGUCUUGCGCUCAACCAGAAAGCCUGUAAUCAUGUUAAGGGUA [A47C A78G A92G U120C U131G] it was 0.05; in that of GUUAACGGUCAUAGGCCAUGGAAACUAGGAGCACCAUUUCGCUGUCAGUGAAGAAAUGAACAAAGAAAAUCUGGGCCAGGCGGGCAUCAAAAGAAAUAGUCUUGCGCCCAACCAGAAAGUCUGUAAUCAUUUUAAGGGUA [C45U A82G U108C], 0.02; in that of GUUAACGGUCAUAGGCCAUGGAAACUAGGAGCACCAUUUCGCUGCCCGUGAAGAGAUGAACAAAGAAAAUCUGGGCCAGGCAGGCAUCAAGAGAGAUAGUCUUGCGCUCAACCAGAAAGUCUGUAAUCGUUUCAAGGGUA [A47C A55G A91G A95G A129G U133C], 2.42.
In the case of GUUAACGGUCAUAGGCCAUGGAAACUAGGAGCACCAUUUCGCUGCUAGUGAAGAAAUGAACAAAGAAAAUCUGGGCCAGGCAGGCAUCAAAAGACAUGGUCUUGCGCUCAACCAGUAAGCCUGUAAUCAUUUUAAGGGUA [C46U A95C A98G A116U U120C] it was 0.04.
The same measure for GUUAACGGUCAUAGGCCAUGGAAACUAGGAGCACCAUUUCGCUGCCCGUGAAGAAAUGAACGAAGAAAAUCUGGGCCAGGCAGGCAUCAAAAGAAAUAGUCUUGCGCUCAACCAGAAAGUCUGUAAUCAUUUCAAGGGUA [A47C A62G U133C]: 1.19.
Regarding GUUAACGGUCAUAGGCCAUGGAAACUAGGAGCACCAUUUCGCUGCUAGUGAAGAAAUGAACAAAGAAAAUCUGGGCCAGGCAGGCAUCAAAAGAAAUAGUCUUGCGCUCAACCAGAAAGUCUGUAAUCGUUUUAAGGGAA [C46U A129G U139A], the self-cleavage was 1.79.
Consider GUUAACGGUCAUAGGCCAUGGAAACUAGGAGCACCAUUUCGCUGCUAGUGAAGAAAAGAGCAAAGAAAAUCUGGGCCAGGCAGGCAUCAAAAGAAAUAGUCUUGCGCUCAACCAGAAAGUCUGUAAUCAUUUUAAGGGUA [C46U U57A A60G], for which the self-cleavage is 0.83.
For the variant GUUAACGGUCAUAGGCCAUGGAAACUAGGAGCACCAUUUCGCUGCCCGUGAAGAAGUGAACAAAGAAAAUCUGGGCCAGGCAGGCAUCAAAAGGAAUAGUCUUGCGCUCGACCAGGAAGUCUGUAAUCAUUUUAAGGGUA [A47C A56G A94G A110G A116G], the self-cleavage was 0.05.
The same measure for GUUAACGGUCAUAGGCCAUGGAAACUAGGAGCACCAUUUCGCUGCAAGUGAAGAAAUGAACAAAGAAAAUCUGGGCCAGGCAGGCAUCAAAAGAAAUAGUCUUGCGCUCAACCAGAAAGUUUGUAAUCAUCUUAAGGGUA [C46A C121U U131C]: 0.7; for GUUAACGGUCAUAGGCCAUGGAAACUAGGAGCACCAUUUCGCUGCUAGUGAGGAAAUGAACAAAGAAAAUCUGGGCCAGGCAGGCAUCAAAAGAAGUAGUCUUGCGCUCGACCAGAAAGUCUGUAAUCAUUUUAAGGGUA [C46U A52G A96G A110G]: 0.16; for GUUAACGGUCAUAGGCCAUGGAAACUAGGAGCACCAUUUCGCUGCUAGUGAAGAAAUGAACAAAGAAAAUCCGGGCCGGGCUGGCAUCAAAAGAAAUAGUCUUGCGCUCAACCAGAAAGUCAGUAAUCAUUUUAAGGGUA [C46U U72C A78G A82U U122A]: 0.24.
In the case of GUUAACGGUCAUAGGCCAUGGAAACUAGGAGCACCAUUUCGCUGCUAGUGAAGAAAUGGACAAAGAAAAUCUGGGCCAGGCAGGCAUCAAAAGAAUCAGUCUUGCGCUCAACCAGAAAGUCUGUAAUCAUUUUAAGGGUA [C46U A59G A96U U97C] it was 1.46; in that of GUUAACGGUCAUAGGCCAUGGAAACUAGGAGCACCAUUUCGCUGUCAGUGAAGAAAUGAACAAAGAAAACCUGGGCCAGGCAGGCAUCGAAAGAAGUAGUCUUGCGCUCAACCAGAAAGUCUGUAAUCAUUUUAAGGGUA [C45U U70C A89G A96G], 1.1; in that of GUUAACGGUCAUAGGCCAUGGAAACUAGGAGCACCAUUUCGCUGCAAGUGAAGAGAUGACCAAAGAAAAUCUGGGCCAGGCAGACAUCAAAAGAAAUAGUCUUGCGCUCAACCAGAAAGUCUGUAAUCAUUCUAAGGGUA [C46A A55G A60C G84A U132C], 2.07.
In the case of GUUAACGGUCAUAGGCCAUGGAAACUAGGAGCACCAUUUCGCUGCUAGUGAAGAAAUGAACAAAGAAAAUCUGGGCCAGGCAGGCAUCAAAAGAGAUAGACUUGCGCUCAACCAGAAAGUCUGUAAUCCUUUUAAGGGUA [C46U A95G U100A A129C] it was 0.55.
For the variant GUUAACGGUCAUAGGCCAUGGAAACUAGGAGCACCAUUUCGCUGCCCGUGAAGAAAUGAACAAAGUAAAUCUGGGCCAGGCAGGCAUCAAAAGGAAUAGUCUUGCGCUCAACCAGAAAGUCUGUAAUCAUUUUAAGGGUA [A47C A66U A94G], the self-cleavage was 1.88.
The same measure for GUUAACGGUCAUAGGCCAUGGAAACUAGGAGCACCAUUUCGCUGCUAGUGAAGAAAUGAACAAAGAAAAUCUGGGCCAGGCAGGCUUCAAAAGAAAUAGUCUUGCGCUCAACCAGAAAGUCUGUAAUCAUUUUAAUGGUA [C46U A86U G136U]: 2.57; for GUUAACGGUCAUAGGCCAUGGAAACUAGGAGCACCAUUUCGCUGCUUGUGAUGAAAUGAACAAAGAAAAUCUGGGCCAGGCAGGCAUCAAAGGAAAUAGUCUUGCGCUCAACCAGAAAGUCAGUAAUCAUUUUAAGGGUA [C46U A47U A52U A92G U122A]: 1.48; for GUUAACGGUCAUAGGCCAUGGAAACUAGGAGCACCAUUUCGCUGCCCGUGGAGAAAUGAACAAAGAAAAUCUGGGCCAGGCAGGCAUCAAAAGAAAUAGUCUCGCGCUCAACCAGAAAGUCUGUGAUCAUUUUAAGGGUU [A47C A51G U103C A125G A140U]: 0.36.
In the case of GUUAACGGUCAUAGGCCAUGGAAACUAGGAGCACCAUUUCGCUGCCCGUGAGGAAAUGAACAAGGAAAAUCUGGGCCAGGCAGGCAUCAAAAGAAAUAGUCUUGCGCUCAACCAGAAAGCCUGUAAUCAUUUUAAGGGUA [A47C A52G A64G U120C] it was 1.25.
